Source: PubChem BioAssay AID1671188 (National Center for Advancing Translational Sciences (NCATS), 2021)
Among all 100,000 compounds or so, about 250 (0.25%) were called active. The shares of active, inactive and inconclusive entries below differ from those in the screen. Calls follow the shape of the dose curve; as a rule, active = well fitted inhibition curve with a large enough effect; inconclusive = small, poorly fitted or top-dose-only effect; inactive = flat fitted curve, though single readings scatter. Potencies of inconclusive entries are left out as doubtful fits.

target: Alanine aminotransferase 2 (Homo sapiens) (UniProt Q8TD30); experiment: Primary qHTS assay for inhibitors of Glutamate pyruvate transaminase 2 (GPT2); conditions: Recombinant GPT2, coupled pyruvate oxidase/HRP Amplex Red fluorescence; series mostly up to 57.7 µM; also: nearly all actives have a fitted effect of over 60% in size
Description: Assay Provider: Zhenghe John Wang Ph.D.
Case Western Reserve University, Cleveland OH
Glutamate pyruvate transaminase 2 (GPT2) catalyzes the reversible transamination of glutamate and pyruvate to provide a-ketoglutarate and alanine. We have optimized an assay for GPT2 enzymatic activity that couples pyruvate formation to detection of fluorescence using an established pyruvate oxidase/horseradish peroxidase / Amplex Red system.
Screening conditions were 250uM a-KG, 2mM L-alanine, and 10ng/uL GPT2 in […] of solution; 10uL of Amplex reaction mix (outlined below) were added so that final concentrations of Amplex reagents in 50uL were 0.2mM ThPP, 0.2U/mL PO and HRP, and 50uM Amplex.
NOTE: The volume of GPT2 in the system depends on the activity of it. The activity is different every batch. You need to test the activity before the assay. For full plate assay with automation, plate 20uL of GPT2 buffer to pin into, then add 10uL of GPT2 dilution followed immediately by 10uL of substrate dilution. 2 Columns of the plate were devoted to GPT2 buffer ([…] PH7.5, 0.0001% Tween) + 50uM AOA (known GPT2 inhibitor) to serve as a positive control. Complete the assay as normal. Amplex-red buffer: […] PH7.5, 1 mM EDTA, 1 mM MgCl2.
1. Combine a-KG and L-alanine at desired concentrations and incubate for at least 10 minutes at 37C. Stocks of L-alanine and a-KG are diluted in distilled water. However, the stocks were diluted in GPT2 buffer for the assay.
2. Prepare GPT2 dilution at the desired concentration in GPT2 buffer.
3. Plate 40uL of GPT2 dilution with 40uL of substrate dilution and let incubate for 30 minutes at room temperature.
4. Add 20uL of Amplex reaction mix prepared as follows: 1.5uL 200U/mL Horseradish Peroxidase, 200mM Thiamine Pyrophosphate, 200U/mL Pyruvate Oxidase; 7.5uL 10mM Amplex Red; 288uL Amplex Buffer.
5. Incubate for 30 minutes at room temperature in the dark, then image using AM_Amplex_Fluorescence on plate reader nearest the window.
Potency is read from the fitted curve at half-maximal effect; tags tell the direction and shape of the fitted curve.

Chain of UniProt Q8TD30 (Q8TD30 whole entry, looked up): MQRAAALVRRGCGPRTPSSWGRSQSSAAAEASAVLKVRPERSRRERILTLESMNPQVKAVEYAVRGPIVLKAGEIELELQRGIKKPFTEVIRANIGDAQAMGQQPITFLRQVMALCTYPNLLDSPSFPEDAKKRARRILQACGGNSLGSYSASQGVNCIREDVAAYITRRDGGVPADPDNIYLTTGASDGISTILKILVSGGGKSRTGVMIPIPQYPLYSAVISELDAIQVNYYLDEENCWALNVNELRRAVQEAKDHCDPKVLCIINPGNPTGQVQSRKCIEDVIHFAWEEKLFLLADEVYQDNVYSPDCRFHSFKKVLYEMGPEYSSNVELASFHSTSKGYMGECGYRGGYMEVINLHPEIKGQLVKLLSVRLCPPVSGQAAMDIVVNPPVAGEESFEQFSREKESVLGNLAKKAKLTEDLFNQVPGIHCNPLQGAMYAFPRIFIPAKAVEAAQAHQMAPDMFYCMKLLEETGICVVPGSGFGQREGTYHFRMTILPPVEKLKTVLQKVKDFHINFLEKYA

Q: Which Potency does the source give for `COc1ccc(C(=O)N[C@H]2CO[C@H]3[C@@H]2OC[C@@H]3n2cc(-c3ccccn3)nn2)cc1` here?
A: Its Potency is “inactive”.

Q: `COc1ccc(-c2ccc3ncc(Nc4cccnc4OC)n3n2)cn1` was tested. Which Potency did it give?
A: The Potency was inconclusive [inhibitor, single point].

Q: For `COc1ccc(CNC(=O)N[C@@H]2CN(c3ccncn3)C[C@H]2CN(C)C)cc1`, which Potency is on record?
A: Its Potency is inconclusive [inhibitor, full curve, poor fit].

Q: `CC(C)N(CCC(=O)c1ccc2ccccc2c1)Cc1ccccc1` was tested. Which Potency did it give?
A: Its Potency is inconclusive [inhibitor, single point].

Q: With `Cc1noc(C)c1-c1cc2cc(CNC3CCOCC3)oc2c(NC2CCN(C)CC2)n1` as the compound, how does the Potency read?
A: The Potency was inconclusive [inhibitor, full curve, poor fit].

Q: For `CCC(=O)N1CCCC(Cc2ncc(C)n2C(C)C)C1` (stereo unspecified), which Potency is on record?
A: The Potency was “inactive”.

Q: `Cn1c(C(=O)NC(C)(C)C)cc2c1CCN(Cc1ccc(F)cc1)C2` was tested. Which Potency did it give?
A: Its Potency is “inactive”.

Q: `Clc1ccccc1Nc1cnc2ccc(N3CCOCC3)nn12` was tested. Which Potency did it give?
A: The Potency was inconclusive [inhibitor, single point].

Q: Which Potency does the source give for `COc1ccc(CNC(=O)c2cc(-c3ccc([S+](C)(=O)[O-])cc3)nc3c2cnn3C)cc1` here?
A: The Potency was inconclusive [inhibitor, single point].

Q: Which Potency does the source give for `CC(C)NC(=O)c1ccc2nnc(-c3cccc([S+](C)(=O)[O-])c3)n2c1` here?
A: Its Potency is “inactive”.

Q: For `C[N+]1(CC2COC(c3ccccc3)(C3CCCCC3)O2)CCCCC1` (stereo unspecified), which Potency is on record?
A: Its Potency is inconclusive [inhibitor, single point].

Q: With `COc1cccc(Nc2ncc3c(n2)C(C)(C(=O)NCc2ccc4c(c2)OCO4)CC3)c1` (stereo unspecified) as the compound, how does the Potency read?
A: The Potency was “inactive”.

Q: How did the Potency turn out when `CC(Oc1cccc(Cl)c1)C(=O)Nc1ccc2c(N3CCOCC3)ncnc2c1` (stereo unspecified) was run?
A: Its Potency is inconclusive [inhibitor, full curve, poor fit].

Q: Which Potency does the source give for `COC(=O)CC[C@H]1CNC(=O)[C@@H]2[C@@H](CCN2Cc2ccc(C(F)(F)F)cc2)N1C` here?
A: The Potency was inconclusive [inhibitor, single point].

Q: How did the Potency turn out when `COc1ccccc1CN1CC[C@H](c2nc3ccc(C(F)(F)F)cc3[nH]2)C1` was run?
A: The Potency was inconclusive [inhibitor, full curve, poor fit].

Q: Which Potency does the source give for `COc1ccc(-c2cc(N3CCCC(NC(=O)c4ccccn4)C3)n[nH]2)cc1` (stereo unspecified) here?
A: Its Potency is inconclusive [inhibitor, single point].

Q: With `O=C(NC1CCOC1)c1ccc2oc(-c3ccc(C(F)(F)F)cc3)nc2c1` (stereo unspecified) as the compound, how does the Potency read?
A: Its Potency is inconclusive [inhibitor, full curve].

Q: `COc1ccc(N2CCN(C(=O)C3(CCO)CC34CCOCC4)CC2)cc1` (stereo unspecified) was tested. Which Potency did it give?
A: The Potency was inconclusive [inhibitor, single point].

Q: For `Cc1ccc(N)cc1O`, which Potency is on record?
A: The Potency was active: 11.2 µM.

Q: For `Cc1cccc(OCCc2noc(C3CCN(C(=O)c4n[nH]c(=O)c5ccccc45)C3)n2)c1` (stereo unspecified), which Potency is on record?
A: Its Potency is “inactive”.

Q: Which Potency does the source give for `CC(C)CN1CC2(C1)C(=O)N(CCCN1CCCC1=O)C(=O)[C@@H]1C[C@@H](O)CN12` here?
A: Its Potency is inconclusive [inhibitor, full curve, poor fit].

Q: Which Potency does the source give for `Cc1ccsc1CN1CCCC(c2nc(-c3cccnc3)no2)CCNC(=O)CC1` (stereo unspecified) here?
A: Its Potency is “inactive”.

Q: How did the Potency turn out when `Cc1ncoc1C(=O)N1CCCC(CCc2ccc(F)c(F)c2)C1` (stereo unspecified) was run?
A: Its Potency is inconclusive [inhibitor, single point].

Q: With `COc1ccccc1-c1ccnc(-c2nnc(C)n2Cc2ccncc2)c1` as the compound, how does the Potency read?
A: Its Potency is inconclusive [inhibitor, single point].

Q: For `Cc1nn(-c2ccc(C(F)(F)F)cc2)c(C)c1[C@@H]1C=C[C@@H](NC(=O)Nc2cccc(C#N)c2)C1`, which Potency is on record?
A: Its Potency is “inactive”.

Q: For `CNc1nc2c(s1)C(c1ccccc1F)CC(=O)N2` (stereo unspecified), which Potency is on record?
A: Its Potency is inconclusive [inhibitor, full curve, poor fit].

Q: Which Potency does the source give for `O=C(NCc1ccc(F)cc1)c1nc2sccn2c1-c1ccc(F)cc1` here?
A: Its Potency is inconclusive [inhibitor, single point].

Q: With `Cc1nc(C)c(C(=O)N2CCc3onc(-c4cccc(F)c4)c3C2)s1` as the compound, how does the Potency read?
A: The Potency was inconclusive [inhibitor, single point].

Q: For `CCc1ncc(C(=O)N[C@@H]2c3ccccc3C3(CCNCC3)[C@H]2OC)cn1`, which Potency is on record?
A: The Potency was inconclusive [inhibitor, single point].

Q: Which Potency does the source give for `C/C(=C/CO)CCC1C(C)CCC2C(C)(C)CCCC12C` (stereo unspecified) here?
A: Its Potency is inconclusive [inhibitor, single point].

Q: Which Potency does the source give for `O=C(Nc1ccccc1)Nc1ccc(=O)n2c1[C@@H]1C[C@@H](CN(C(=O)COc3ccccc3)C1)C2` here?
A: Its Potency is inconclusive [inhibitor, single point].

Q: Which Potency does the source give for `CCOc1ccc2c(n1)CCN(C(=O)c1ccccc1C)C2` here?
A: Its Potency is inconclusive [inhibitor, single point].

Q: With `O=C(/C=C/c1ccc(O)c(O)c1)OCc1ccccc1O[C@@H]1O[C@H](CO)[C@@H](O)[C@H](O)[C@H]1O` as the compound, how does the Potency read?
A: Its Potency is inconclusive [inhibitor, single point].

Q: How did the Potency turn out when `Cc1ccc(C)c(C(=O)N2CCC3(CC2)NC(=O)N(c2ccc(F)cc2)N3)c1` was run?
A: Its Potency is inconclusive [inhibitor, partial curve, poor fit].

Q: With `O=C(C[C@@H]1CCNC[C@@H]1Cc1cc(-c2ccc(F)cc2)on1)NCc1cccnc1` as the compound, how does the Potency read?
A: Its Potency is “inactive”.

Q: `COc1ccc(CC(=O)N2C[C@@H](CO)[C@H](c3nc(C)no3)C2)cc1` was tested. Which Potency did it give?
A: The Potency was inconclusive [inhibitor, partial curve, poor fit].

Q: With `COc1ccc(-c2ccc3ncc(Nc4ccc(C(F)(F)F)cc4)n3n2)cn1` as the compound, how does the Potency read?
A: The Potency was inconclusive [inhibitor, single point].

Q: `O=C(CCc1cc2n(n1)CCNC2)NCc1nc2ccc(Cl)cc2[nH]1` was tested. Which Potency did it give?
A: The Potency was “inactive”.

Q: `O=C1C(Cl)=C(NCCN2CCOCC2)C(=O)c2ncccc21` was tested. Which Potency did it give?
A: The Potency was active: 1.37 µM.

Q: `O=C(N[C@@H]1C[C@H](Cn2cc(CN3CCS(=O)(=O)CC3)nn2)[C@@H](O)[C@H]1O)C1CCCC1` was tested. Which Potency did it give?
A: The Potency was inconclusive [inhibitor, single point].

Q: Which Potency does the source give for `CC(C)Cc1cc(C[C@@H]2C[C@H](NC(=O)c3ccco3)C2(C)C)no1` here?
A: Its Potency is “inactive”.
